Measured values: PMC12136788
The list shows a part of the results.

B1: chr15:67202635:67202736:-|3pUTR|ENSG00000103591|msi1|FALSE|unique (ssRNA)
RNA: GGGAGUUCUACAGUCCGACGAUCUGCCAAAAUUGCCCUUAUCAUGUUGGCUGCCUGACUUGUUUAUAGGGUCCCCUUAAUUUUAGUUUUUAGUAGGAGGUUAAGGAGAAAUCUUUUUUUUCCUCAGUAUAUUGUAAGAGAGUGCAACAGAGGAUUGAGCAUCA
B2: chr20:18487131:18487232:-|3pUTR|ENSG00000089050|msi1|total|mutant (ssRNA)
RNA: GGGAGUUCUACAGUCCGACGAUCAAAUACCGUAACCAGUAACCACAGCCCGCUGUAAAAUUGAAAAUUCAGUUCAGUCAAACCCGCCAUAUUUCAAGUGCUCAACAGCCACUGGUGGCUAUUGGUUACCUUACUGACCAGCCACAACAGAGGAUUGAGCAUCA
B3: chr15:52582156:52582307:-|CDS|ENSG00000047346|control|control|control (ssRNA)
RNA: GGGAGUUCUACAGUCCGACGAUCAAGAUCUACCUCCAUAGAGACGUACGGCUCCUGUUCUCUAGAAAGUCAAUGGAGGUUGAUAGCGGUGCUGCAUAUGAACUCAAAUCUUACACUGAAUCACCAACAAACCCUCAGUUUUCACAACAGAGGAUUGAGCAUCA
B4: chr1:54216159:54216271:+|CDS|ENSG00000116221|unk|total|mutant (ssRNA)
RNA: GGGAGUUCUACAGUCCGACGAUCCUUGGAGCAGCCCGUGGUGGUGCAGAGCGUGGGCACGGAUGGACGUGUCUUCCAUUUCCCCGUGUUUCAACUGAAUACCACAGACCUGGACUGUAACGAGGGUGUCAAGAAUUUGGCCUGCAACAGAGGAUUGAGCAUCA
B5: chr2:216674221:216674322:-|3pUTR|ENSG00000115461|msi1|total|mutant (ssRNA)
RNA: GGGAGUUCUACAGUCCGACGAUCGCAUGCCCCAUCUCUCUGCACAGCUGUCCCCUAAACCCAACUCACGUUUCUGUAUGUCUCCGGCCAGUAUCCCAAACCUCUUCCACGUCACUGUUCUUUCCACCCAUUCUCCCUUUGCAUCAACAGAGGAUUGAGCAUCA
B6: chr6:36925443:36925544:+|3pUTR|ENSG00000198663|msi1|total|mutant (ssRNA)
RNA: GGGAGUUCUACAGUCCGACGAUCGAGGCAUCCCGUGGGAAAGUCCCCUAAGUCCCAUUUUGUACUUCAACAAAAAAUGACUGCCGCAGAAGAUAAGUGGAGACUUUUAUGGAUAUACUACUCAUUUUACUUAAAAUCUACCCACAACAGAGGAUUGAGCAUCA
B7: chr1:201892154:201892255:+|3pUTR|ENSG00000198892|msi1|total|mutant (ssRNA)
RNA: GGGAGUUCUACAGUCCGACGAUCUGUUUGUCCCCUCUGGGCUGGGGUGGGGGGAGGGAGGAGGUUCCGUCAGCAGCUGGCAGCCGCCCUCCUCUCUGGCUGCCCCACUGGCCACAUCUCUGGCCUGCCCGAUUAAAGCUGUAACAACAGAGGAUUGAGCAUCA
B8: chr12:27081967:27082483:-|CDS|ENSG00000214700|control|control|control (ssRNA)
RNA: GGGAGUUCUACAGUCCGACGAUCGAGAACAAAACUGUCUGUUGGCAAACUGAAUAAUCUUGUGCAAGAGUUUCAGAUAUUUCUAGAAAAUCUGAAAGAUGAUGACGCUGUAUUUCCUGAAACUGCUCAGCAAGAUUUCCAGCUCAACAGAGGAUUGAGCAUCA
B9: chr6:105096826:105097152:-|3pUTR|ENSG00000112276|msi1|FALSE|unique (ssRNA)
RNA: GGGAGUUCUACAGUCCGACGAUCACUUGCAACCUAGUUUUAAAAUACAUGAGGAUUUUAUGAAAGCUUUAUACAGACAUUUAUAGGAAACUCAUUCUUUGAUUUUAGGUGCCAUUUAAAUUGAUAACACUUACUUUAUAAAAACAACAGAGGAUUGAGCAUCA
B10: chr15:32738025:32738127:+|3pUTR|ENSG00000166923|unk|total|mutant (ssRNA)
RNA: GGGAGUUCUACAGUCCGACGAUCGGAUAUCUGCUGUCACUAUUUUUAUUCAAUAUUAUACUGGAGGUUCUACCCCGGGUAAUCCGGCAAAAAAAAAAAAAAAAAAAAAAAAAAAAAAAAAAAAAAAAAAAAAAAAAAGAAAAGCAACAGAGGAUUGAGCAUCA
B11: chr16:23064695:23064796:-|3pUTR|ENSG00000103404|msi1|FALSE|unique (ssRNA)
RNA: GGGAGUUCUACAGUCCGACGAUCGUUUAUGGAGGGCCUUCUUUGAGCACAGAGGCAAAACUGAAAGCUUCAGGGAUUUGCUGUAGCUGAGGAGCCCUGGGAGCACAGCCCAUCAAGCAAGGGAUGUGAUGGUGUCCUAAAUGGCAACAGAGGAUUGAGCAUCA
B12: chr14:88572724:88572825:+|CDS|ENSG00000100722|unk|total|mutant (ssRNA)
RNA: GGGAGUUCUACAGUCCGACGAUCGUGACACUUACAUAUGGUUCUUCUCGCCCUUCUAUUGAAAUUUAUCGACCACCUGCAAGCCGAAAUGCAGACCGUGGUGUUCAUUUAAACAGGUUGCAAUUUCAACAGCAGCAGAACCGUCAACAGAGGAUUGAGCAUCA
B13: chr19:49662424:49662617:-|CDS|ENSG00000126456|control|control|control (ssRNA)
RNA: GGGAGUUCUACAGUCCGACGAUCGUUACUGGGUAACAUGGUGUUGGCCCCACUCCCAGAUCCGGGACCCCCAAGCCUGGCUGUAGCCCCUGAGCCCUGCCCUCAGCCCCUGCGGAGCCCCAGCUUGGACAAUCCCACUCCCUUCAACAGAGGAUUGAGCAUCA
B14: chr1:45741042:45741143:-|CDS|ENSG00000197429|msi1|FALSE|unique (ssRNA)
RNA: GGGAGUUCUACAGUCCGACGAUCUGCCAUGAUCUCUUGGAAUUCUCAGAAAACUACAUUCAUGUCCAUUUCUUGGAGGUUCAUAGUGGAGAAGAGUUCCUGGCACUUACGAAAGAUCAGCUGAUCAAAAUUUUGCGAAGUGAACAACAGAGGAUUGAGCAUCA

Each binder was assayed against MSI1 full-length (mouse, UniProt Q61474 1-362) (assay: nsRBNS (natural sequence RNA bind-n-seq); RBNS binding buffer (assumed for nsRBNS): 25 mM Tris pH 7.5, 150 mM KCl, 3 mM MgCl2, 0.01% Triton X-100, 500 ug/ml BSA, 20 U/ml SUPERase-In, 4 C; UNK is unkempt and MSI1 is Musashi-1; names of the RNAs are library labels; protein concentration not given here; high values mean tight binding).
UniProt Q61474, sequence (Q61474 whole entry): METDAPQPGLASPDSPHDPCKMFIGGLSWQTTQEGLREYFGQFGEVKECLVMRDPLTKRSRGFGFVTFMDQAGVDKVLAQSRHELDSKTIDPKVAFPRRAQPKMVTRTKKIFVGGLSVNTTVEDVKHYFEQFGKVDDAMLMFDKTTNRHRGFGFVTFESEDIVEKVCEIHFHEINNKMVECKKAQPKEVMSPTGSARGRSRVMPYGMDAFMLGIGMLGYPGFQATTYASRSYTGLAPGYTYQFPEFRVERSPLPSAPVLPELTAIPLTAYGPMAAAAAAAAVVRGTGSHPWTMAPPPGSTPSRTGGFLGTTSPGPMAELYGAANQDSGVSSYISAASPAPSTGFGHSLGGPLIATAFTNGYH
B1 was tested, and the binding signal was 32.9 enrichment R. For B2, the binding signal was 0.516 enrichment R. B3 was tested, and the binding signal was 0.525 enrichment R. Work on B4 yielded a binding signal of 0.417 enrichment R. Binder B5 has a binding signal of 0.921 enrichment R. Binder B6 has a binding signal of 0.467 enrichment R. For B7, the binding signal was 0.451 enrichment R. B8 gave a binding signal of 0.236 enrichment R. In the case of B9, the binding signal is reported as 1.13 enrichment R. B10 gave a binding signal of 0.986 enrichment R. For B11, the binding signal was 0.522 enrichment R. For B12, the binding signal was 0.415 enrichment R. Work on B13 yielded a binding signal of 0.637 enrichment R. Binder B14 has a binding signal of 0.171 enrichment R.
